Results: the supplement of paper PMC4967469
By IC50 is meant the dose at which the fit gives 50% viability; a fit beyond the top or the lowest dose is shown as a bound at that dose. AUC is the area under the same curve over the 256-fold range up to the top dose, as a fraction; the more sensitive the line, the further below 1. For some of these results: Any top dose called inferred was derived from the fitted curves, not read from the paper. For some of these results: An entry number marks a drug with two screens in the source, which often give different values.

Experiments:
Assay in all cases: Viability of human cancer cell lines after 72 h of drug (GDSC screen)
[1] = compound: COc1nc(C)cnc1NS(=O)(=O)c1cccnc1-c1ccc(-c2nnco2)cc1 [Zibotentan]; settings: top dose 20 µM; top dose inferred
Method: (§1)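 Human cancer cell lines in 384-well plates, medium with 10% serum, drug for 72 h over a 256-fold dose range (nine 2-fold or five 4-fold steps up to the top dose). Adherent lines were fixed and stained with the nucleic acid dye Syto60, suspension lines read with resazurin; signal relative to control wells, capped at 0 and 100%. One two-parameter sigmoid per drug and line, fitted in a mixed model over all curves with the slope shared within a line.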

[2] = compound: Cc1cnc(-c2cnc(NCCNc3ccc(C#N)cn3)nc2-c2ccc(Cl)cc2Cl)[nH]1 [CHIR-99021]
Method: as §1

[3] = compound: COc1cc(N2CCC(O)CC2)ccc1Nc1cc(Nc2ccccc2S(=O)(=O)C(C)C)c2cc[nH]c2n1 [MPS-1-IN-1]; settings: top dose 20 µM; top dose inferred
Method: as §1

[4] = compound: C[C@]1(c2nc3c(C(N)=O)cccc3[nH]2)CCCN1 [ABT-888]; settings: top dose 5 µM; top dose inferred
Method: as §1

[5] = compound: Cc1ccc(-c2c(C(=O)CCl)n(CCCO)c3ncnc(N)c23)cc1 [CMK]; settings: top dose 4 µM; top dose inferred
Method: as §1

[6] = compound: COc1cc(O)c2c(c1)/C=C/C[C@H](O)[C@H](O)C(=O)/C=C\C[C@H](C)OC2=O [(5Z)-7-Oxozeaenol]; settings: top dose 10 µM; top dose inferred
Method: as §1

[7] = compound: O=c1cc(-c2cccc3c2Sc2ccccc2S3)oc(N2CCOCC2)c1 [KU-55933]; settings: top dose 10 µM
Method: as §1

[8] = compound: C=CC(=O)Nc1cc(-n2c(=O)ccc3cnc4ccc(-c5cn[nH]c5)cc4c32)ccc1C [QL-X-138]; settings: top dose 10.24 µM; top dose inferred
Method: as §1

[9] = compound: CCn1c(-c2nonc2N)nc2cnc(Oc3cccc(NC(=O)c4ccc(OCCN5CCOCC5)cc4)c3)cc21 [GSK269962A]; settings: top dose inferred
Method: as §1

[10] = compound: C/C=C(/C)C(=O)O[C@H]1C(C)=C2[C@H]([C@@H]1OC(=O)CCCCCCC)[C@@](C)(OC(C)=O)C[C@H](OC(=O)CCC)[C@@]1(O)[C@H]2OC(=O)[C@@]1(C)O [Thapsigargin]; settings: top dose 0.512 µM; top dose inferred
Method: as §1

[11] = compound: COc1cc2ncnc(-n3nc(-c4ccccn4)nc3N)c2cc1OC [CP466722]; settings: top dose 16 µM; top dose inferred
Method: as §1

[12] = compound: Nc1ccn([C@@H]2O[C@H](CO)[C@@H](O)[C@@H]2O)c(=O)n1 [Cytarabine]; settings: top dose 2 µM
Method: as §1

[13] = compound: Cc1ccc(F)c(NC(=O)Nc2ccc(-c3cccc4[nH]nc(N)c34)cc2)c1 [ABT-869]; settings: top dose 1.024 µM; top dose inferred
Method: as §1

[14] = top dose 2.56 µM, screen: GDSC drug entry 154
[15] = top dose 10 µM, screen: GDSC drug entry 1241, top dose inferred
[16] = top dose 2.5 µM, screen: GDSC drug entry 127
[17] = top dose 5 µM, screen: GDSC drug entry 1192

| Cell Line | AUC [1] | IC50 [1] [µM] | AUC [2, 14] | IC50 [2, 14] [µM] | AUC [2, 15] | IC50 [2, 15] [µM] | AUC [3] | IC50 [3] [µM] | AUC [4] | IC50 [4] [µM] | AUC [5] | IC50 [5] [µM] | AUC [6] | IC50 [6] [µM] | AUC [7] | IC50 [7] [µM] | AUC [8] | IC50 [8] [µM] | AUC [9, 16] | IC50 [9, 16] [µM] | AUC [9, 17] | IC50 [9, 17] [µM] | AUC [10] | IC50 [10] [µM] | AUC [11] | IC50 [11] [µM] | AUC [12] | IC50 [12] [µM] | AUC [13] | IC50 [13] [µM] |
| --- | --- | --- | --- | --- | --- | --- | --- | --- | --- | --- | --- | --- | --- | --- | --- | --- | --- | --- | --- | --- | --- | --- | --- | --- | --- | --- | --- | --- | --- | --- |
| SNU-C1 (large intestine, suspension) | 0.979 | > 20 | 0.958 | > 2.56 | 0.97 | > 10 | 0.907 | > 20 | 0.976 | > 5 | 0.974 | > 4 | 0.663 | 2.2 | 0.912 | > 10 | 0.872 | > 10.2 | 0.98 | > 2.5 | 0.853 | > 5 | 0.794 | 0.373 | 0.895 | > 16 | 0.94 | > 2 | 0.978 | > 1.02 |
| SR (lymphoid neoplasm, suspension) | 0.962 | > 20 | 0.959 | > 2.56 | 0.976 | > 10 | 0.266 | 0.293 | 0.986 | > 5 | 0.916 | > 4 | 0.544 | 0.812 | 0.894 | 9.94 | 0.28 | 0.164 | 0.181 | 0.0197 | – | – | 0.931 | > 0.512 | 0.606 | 1.89 | 0.779 | 0.733 | 0.927 | > 1.02 |
| ST486 (Burkitt lymphoma, suspension) | 0.96 | > 20 | 0.883 | 2.2 | 0.864 | 7.11 | 0.719 | 4.78 | 0.988 | > 5 | 0.849 | 2.49 | 0.711 | 2.26 | 0.959 | > 10 | 0.322 | 0.218 | 0.924 | > 2.5 | 0.789 | 1.94 | 0.108 | 0.00213 | 0.54 | 1.27 | 0.92 | > 2 | 0.989 | > 1.02 |
| SU-DHL-4 (B-cell lymphoma, suspension) | 0.997 | > 20 | 0.996 | > 2.56 | 0.978 | > 10 | 0.974 | > 20 | 0.997 | > 5 | 0.782 | 1.22 | 0.872 | 5.26 | 0.997 | > 10 | 0.595 | 1.08 | 0.981 | > 2.5 | 0.997 | > 5 | 0.221 | 0.00669 | 0.782 | 4.86 | 0.997 | > 2 | 0.997 | > 1.02 |
| SU-DHL-16 (B-cell lymphoma, suspension) | 0.996 | > 20 | 0.996 | > 2.56 | 0.996 | > 10 | 0.873 | 10.8 | 0.985 | > 5 | 0.979 | > 4 | 0.74 | 2.4 | 0.981 | > 10 | 0.164 | 0.0944 | 0.935 | 2.21 | 0.917 | 3.74 | 0.015 | < 0.002 | 0.974 | > 16 | 0.863 | 1.01 | 0.996 | > 1.02 |
| SUP-M2 (anaplastic large cell lymphoma, suspension) | 0.994 | > 20 | 0.994 | > 2.56 | 0.961 | > 10 | 0.3 | 0.4 | 0.994 | > 5 | 0.907 | 3.14 | 0.439 | 0.442 | 0.892 | 6.91 | 0.237 | 0.141 | 0.944 | > 2.5 | 0.763 | 1.42 | 0.292 | 0.00982 | 0.664 | 2.53 | 0.832 | 0.883 | 0.967 | > 1.02 |
| SUP-T1 (T-cell lymphoblastic leukaemia, suspension) | 0.987 | > 20 | 0.985 | > 2.56 | 0.913 | > 10 | 0.888 | 19.1 | 0.979 | > 5 | 0.985 | > 4 | 0.78 | 3.73 | 0.987 | > 10 | 0.672 | 1.83 | 0.99 | > 2.5 | 0.861 | 3.63 | 0.592 | 0.0558 | 0.589 | 1.71 | 0.893 | > 2 | 0.983 | > 1.02 |
| SW684 (fibrosarcoma, adherent) | 0.983 | > 20 | 0.914 | > 2.56 | 0.912 | > 10 | 0.983 | > 20 | 0.983 | > 5 | 0.92 | > 4 | 0.817 | 9.28 | 0.964 | > 10 | 0.905 | > 10.2 | 0.824 | > 2.5 | 0.938 | > 5 | 0.866 | > 0.512 | 0.962 | > 16 | 0.955 | > 2 | 0.982 | > 1.02 |
